Results reported in ChEMBL document CHEMBL4888484, “Replenishing the malaria drug discovery pipeline: Screening and hit evaluation of the MMV Hit Generation Library 1 (HGL1) against asexual blood stage Plasmodium falciparum ,using a nano luciferase reporter read-out” (2022).
Out of some 150,000 compounds screened, about 540 (0.36%) showed an effect of 50% or more. This is one part of the list.

test system: Plasmodium falciparum; experiment: Primary screen in NF54 nanoGlo assay, in single point, at 2uM, 72h; a lower Z score goes with more inhibition; type: functional, Erythrocyte; conditions: timepoint 72 hour

Row | SMILES | % Inhibition [%] | Z score
1 | Cc1cc(C(=O)N[C@H]2CCN(Cc3c[nH]c(C#N)c3)C[C@@H]2O)no1 | -11 | 1.44
2 | COc1ccc(CCN(C(=O)[C@@H]2CNC(=O)C2)C2CCCCC2)cc1OC | 3 | -0.51
3 | Cc1nc(-c2cc(S(=O)(=O)N3CCC[C@H](C(=O)Nc4ccc(F)cc4Cl)C3)c(C)s2)no1 | -16 | 1.58
4 | CCc1nnc(NC(=O)Cn2c3c(c(=O)n(C4CCCCC4)c2=O)CCC3)s1 | -18 | 3.15
5 | COC1(OC)CC2(CN(C(=O)c3cccn3C)[C@H]2C(C)C)C1 | -1 | 0.13
6 | NC(=O)C[C@@H](CN1Cc2ccccc2C1=O)c1ccc(Cl)cc1 | -3 | 0.46
7 | CN1CCO[C@@H](CNS(=O)(=O)c2ccc(C3CCCCC3)cc2)C1 | 2 | -0.24
8 | CC(O)c1ccn(Cc2csc(C3CCCO3)n2)n1 (centres undefined) | -5 | 0.67
9 | COc1ccccc1OCCCNC(C)(C)C | 0 | 0.01
10 | O=C(N[C@H]1CCOC[C@@H]1O)c1ccccn1 | -3 | 0.33
11 | Cc1ccsc1C(C)NC1CCCC1CO (centres undefined) | -15 | 2.18
12 | CCOc1cc(C#N)ccc1OCC(=O)NCc1ccc(C(=O)N2CCNC(=O)C2)cc1 | -11 | 1.02
13 | Cc1nc(C)c(CC(=O)NC2CCCCCCC2)c(=O)[nH]1 | -14 | 1.38
14 | CN1CC[C@H](NC(=O)c2ccncc2Cl)C1=O | 0 | -0.02
15 | O=C(NC12CCCN(CC1)C2)c1ccc(Br)cc1F (centres undefined) | -11 | 2.29
16 | COc1ccc2cc1OCC(=O)N[C@@H](C)C(=O)N(C)CCCCN(C(=O)Cc1cc(F)ccc1F)CCCNC(=O)CC2 | -5 | 1
17 | COc1ccc(CC[C@H](C)Nc2ccc3c(c2)CCC3)cc1 | -3 | 0.48
18 | O=C(Nc1ccc2c(c1)OC1(CCCCC1)O2)c1ccccc1F | -5 | 0.52
19 | CCOC(=O)c1cnn(Cc2csc([C@H](C)OCC)n2)c1C#N | -4 | 0.6
20 | CNC(=O)C[C@H]1CCOC2(CCN(S(=O)(=O)c3cccc4nsnc34)CC2)C1 | -17 | 1.98
21 | C=CCNC(=O)CN1CC2OCCN(Cc3ccccc3)C2C1 (centres undefined) | 29 | -3.85

Row | SMILES | % Inhibition [%] | Z score
22 | Nc1cccc(C(=O)NCCN2CCCCC2=O)n1 | -18 | 1.72
23 | CCN(C)C1(CNS(=O)(=O)c2cn[nH]c2)CCCCC1 | -6 | 0.56
24 | Cc1cc(C)n(-c2cnc3c(-c4ccccn4)cnn3c2-c2ccccc2)n1 | 29 | -3.8
25 | CCc1cccc(N2C(=O)CN(S(=O)(=O)c3ccc(C)cc3)C[C@@]2(C)C(=O)NCCC(C)C)c1 | -9 | 1.07
26 | COc1ccc(S(=O)(=O)Nc2cnc(N(C)C)nc2)cc1Cl | 1 | -0.23
27 | O[C@H]1CN(Cc2cnn(-c3ccccc3)c2)CC[C@@H]1N1CCCCCC1 | -11 | 1.49
28 | COc1cccc(CN2CCC[C@@]3(CCN(C(=O)c4[nH]cnc4C)C3)C2=O)c1OC | -16 | 1.45
29 | COc1ccccc1C1(Cn2nnnc2N(C)C[C@H]2CCOC2)CC1 | -10 | 1.93
30 | COC(=O)C[C@]1(C(=O)OC)N[C@@H](c2ccccc2C)[C@H]2C(=O)N(C)C(=O)[C@H]21 | 0 | -0.06
31 | CN(C(=O)COc1ccc(-c2ncccn2)cc1CN1CCN(c2ccccc2)CC1)C1CCCCC1 | 7 | -0.96
32 | CCN(CC)C(=O)CCC(=O)N1CC2(CCC2)[C@H]1c1ccccc1 | -5 | 0.78
33 | Cc1cccc(-c2ccc(C(=O)N[C@@H]3C(=O)NCC34CCOCC4)n2C)c1 | -13 | 2.09
34 | CCN1CCN(c2nc3ccccc3nc2[C@@H](C#N)S(=O)(=O)c2ccccc2)CC1 | -5 | 0.45
35 | CC1(C(=O)N2C[C@H](C(=O)O)[C@@H](c3ccccc3)C2)CCCOC1 (some centres undefined) | -8 | 1
36 | O=C(O)c1ccc2c(c1)ncn2Cc1cccnc1 | -10 | 1.2
37 | CCn1c2c(c(=O)n3ncc(C(=O)NCC4CCN(Cc5cccc(Cl)c5)CC4)c13)CN(Cc1ccc(OC)cc1)CC2 | -16 | 1.52
38 | CCN1C(=O)C[C@H](C(=O)Nc2cnc3ccccc3c2)[C@H]1c1nccn1CC | 23 | 0.68
39 | CC(C)(C)OC(=O)N1CCCC(CCNC(=O)CC2CCCO2)C1 (centres undefined) | 8 | -1.12
40 | O=C(CCn1nnc2cc(-c3noc(-c4ccc(F)c(F)c4)n3)ccc21)N1CCCCC1 | -23 | 4.53
41 | O=C(NC(C1CC1)C1CC1)c1cc(C2CC2)[nH]n1 | 3 | -0.63
42 | COC(CNC(=O)C1(C)CCCCN1)c1ccccc1 (centres undefined) | -9 | 1.07

Row | SMILES | % Inhibition [%] | Z score
43 | COc1c(Br)cccc1C(=O)NCCc1cn(C)cn1 | -8 | 1.49
44 | C[C@](O)(CNC(=O)Nc1nncs1)c1ccco1 | -8 | 1.19
45 | C[C@H](Oc1cccc(CO)c1)C(=O)N1CCC(c2ccccc2)CC1 | 19 | -2.42
46 | COc1ccccc1N1CCN(Cc2ncccc2C(=O)O)CC1 | 0 | 0.08
47 | O=C(NCCN1CCCC1)C(CN(Cc1ccc2c(c1)OCO2)CC1CCCO1)Oc1ccccc1F (centres undefined) | 10 | -0.92
48 | Cc1cccc(CNC(=O)[C@]2(C)Cn3nc(-c4cccs4)cc3C(=O)N2c2cccc(C)c2C)c1 | -4 | 0.82
49 | CC(=O)N1CCCN(C(=O)c2cc(C)nc3cc(Br)ccc23)CC1 | -13 | 2.63
50 | CC(NC(=O)C(C)N1CCN(C)CC1C)c1ccc2c(c1)OCCO2 (centres undefined) | -11 | 1.16
51 | O=C(Nc1nccnc1C(=O)NC1CCN(S(=O)(=O)c2ccc(Cl)cc2)CC1)c1ccc(F)c(F)c1 | -1 | 0.09
52 | O=C(C(=O)N1CCOCC1)c1c(-c2ccc(Cl)cc2)cc2ccccn12 | -8 | 1.24
53 | CCCC(NC(=O)N(C)CC1CCCC1O)c1ccccn1 (centres undefined) | -6 | 0.49
54 | O=C(N[C@H]1CCN(C(=O)C2CCC2)C1)c1ccccc1 | -1 | 0.22
55 | Cc1cc(F)ccc1-c1ccc(C(=O)N2CC[C@@H](N)C2)cc1F | 5 | -0.72
56 | Cc1nnc2n1CCC[C@@H]2NCc1cc(F)ccc1Br | -2 | 0.23
57 | Cc1ccc2c(c1Br)CN(C(=O)NCC[C@H]1CCCOC1)C2 | -4 | 0.77
58 | c1ccc(CCOCC2CCNCC2)cc1 | 29 | -3.33
59 | CCC1(CNS(=O)(=O)Cc2ncsc2Br)CC1 | 4 | -0.61
60 | COc1ccccc1C(=O)Nc1ccc(Oc2nc3ccccc3n3c(C)nnc23)cc1 | -2 | 0.19
61 | CN(CCc1cnccn1)Cc1c(Cl)cccc1C(=O)O | -10 | 1.92
62 | Cc1ccc(CNC(=O)c2[nH]nc3c2CCCC3)o1 | -13 | 1.78
63 | O=C(Nc1ccccn1)C1C2CCC3C(CCC21)C3(Cl)Cl (centres undefined) | -14 | 1.51

Row | SMILES | % Inhibition [%] | Z score
64 | O=C(CCC(=O)c1ccccc1)NCC#CCOc1cccc(C(F)(F)F)c1 | -8 | 1.3
65 | Cn1cc([C@@H]2CCCN2CCOc2cccc(C#N)c2)cn1 | -13 | 1.64
66 | COCCCN1CCN(Cc2ccccc2)CC[C@H]1c1nc(C)n[nH]1 | -2 | 0.35
67 | Cc1cnc(C)c(N2CCC[C@@](CO)(CC3CC3)C2)n1 | 5 | -0.75
68 | O=C(NCCN1CCCCC1)c1ccc2c(=O)n(-c3ccc(F)cc3)c(N3CCCC3)nc2c1 | -10 | 1.8
69 | Cc1ccccc1OC[C@H](O)C(=O)NCCC(=O)Nc1cc(F)ccc1F | 1 | -0.11
70 | CN1CCC[C@H](CNC(=O)c2cccc(CC(=O)O)c2)[C@H]1c1ccccc1 | -4 | 0.63
71 | CCOC(=O)c1cc(-c2ccc(N3CCN(C(=O)c4ccc(F)cc4F)CC3)cc2)n(-c2cccc(F)c2)n1 | -6 | 0.69
72 | C[C@H]1Cc2ccccc2N1C(=O)Cn1cc(S(=O)(=O)Cc2ccccc2)c2ccccc21 | 1 | -0.18
73 | C[C@H](c1ccccc1)N(CC(N)=O)C(=O)c1cc(C(F)F)n(C)n1 | 0 | -0.02
74 | COc1cc(C)c(CN2CCC[C@H](CN3CCN(C)CC3)C2)cc1C | -7 | 0.62
75 | O=S(=O)(CCCOc1ccccc1)NC[C@H]1CCCN1c1ccccc1 | -13 | 2.45
76 | CCC(C(=O)N1CCC(c2nc(C)no2)C1)N1CCCC1=O (centres undefined) | -18 | 2.42
77 | COc1ccc(CNC(=O)[C@H]2C[C@@H](C(=O)Nc3ccc(F)cc3)CN(CC(C)C)C2)cc1 | -8 | 0.99
78 | CCCN1CC(CNS(=O)(=O)C2CCOC2C)CC1=O (centres undefined) | -6 | 0.67
79 | CN1C(=O)COC(C(=O)N2CCCc3n[nH]cc32)C1c1ccccc1 (centres undefined) | -3 | 0.34
80 | CCCCNC(=O)[C@@H]1C[C@H](COc2ccc(C)nc2)CN(Cc2ccc(OC)c(OC)c2)C1 | -5 | 0.55
81 | N#Cc1nc(-c2cccnc2)oc1NCCc1ccccc1 | 2 | -0.3
82 | COc1ccccc1N(CC(=O)Nc1cc(C)on1)S(=O)(=O)c1ccc(F)cc1 | -1 | 0.23
